Experimental data from publication PMC10333293, “Membrane recruitment of the polarity protein Scribble by the cell adhesion receptor TMIGD1” (Communications Biology, 2023).
Results are given in words; binding and its absence hold for the method and conditions named. For some assays here: In cells and extracts the contact can be indirect. Some results given as binding are weak or reduced against the parent protein; the word gives no strength. For some assays here: Tags and fused reporters may be left off the sequences shown.

Amino acid sequences for entries named in this document (tags omitted).
UniProt Q9BTT6: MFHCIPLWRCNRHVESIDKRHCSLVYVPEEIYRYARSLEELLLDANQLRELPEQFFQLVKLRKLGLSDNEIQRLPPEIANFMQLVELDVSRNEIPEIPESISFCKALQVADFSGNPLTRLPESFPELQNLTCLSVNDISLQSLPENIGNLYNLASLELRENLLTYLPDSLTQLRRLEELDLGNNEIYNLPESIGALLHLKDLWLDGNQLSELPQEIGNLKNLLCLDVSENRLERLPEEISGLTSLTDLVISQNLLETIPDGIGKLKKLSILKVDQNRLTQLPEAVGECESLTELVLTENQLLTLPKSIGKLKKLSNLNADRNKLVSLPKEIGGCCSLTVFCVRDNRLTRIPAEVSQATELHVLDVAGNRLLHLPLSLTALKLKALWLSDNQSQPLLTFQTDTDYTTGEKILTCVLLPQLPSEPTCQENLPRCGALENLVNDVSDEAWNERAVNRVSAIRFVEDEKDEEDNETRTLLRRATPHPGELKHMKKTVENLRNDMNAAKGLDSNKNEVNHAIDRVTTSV
UniProt Q96RT1: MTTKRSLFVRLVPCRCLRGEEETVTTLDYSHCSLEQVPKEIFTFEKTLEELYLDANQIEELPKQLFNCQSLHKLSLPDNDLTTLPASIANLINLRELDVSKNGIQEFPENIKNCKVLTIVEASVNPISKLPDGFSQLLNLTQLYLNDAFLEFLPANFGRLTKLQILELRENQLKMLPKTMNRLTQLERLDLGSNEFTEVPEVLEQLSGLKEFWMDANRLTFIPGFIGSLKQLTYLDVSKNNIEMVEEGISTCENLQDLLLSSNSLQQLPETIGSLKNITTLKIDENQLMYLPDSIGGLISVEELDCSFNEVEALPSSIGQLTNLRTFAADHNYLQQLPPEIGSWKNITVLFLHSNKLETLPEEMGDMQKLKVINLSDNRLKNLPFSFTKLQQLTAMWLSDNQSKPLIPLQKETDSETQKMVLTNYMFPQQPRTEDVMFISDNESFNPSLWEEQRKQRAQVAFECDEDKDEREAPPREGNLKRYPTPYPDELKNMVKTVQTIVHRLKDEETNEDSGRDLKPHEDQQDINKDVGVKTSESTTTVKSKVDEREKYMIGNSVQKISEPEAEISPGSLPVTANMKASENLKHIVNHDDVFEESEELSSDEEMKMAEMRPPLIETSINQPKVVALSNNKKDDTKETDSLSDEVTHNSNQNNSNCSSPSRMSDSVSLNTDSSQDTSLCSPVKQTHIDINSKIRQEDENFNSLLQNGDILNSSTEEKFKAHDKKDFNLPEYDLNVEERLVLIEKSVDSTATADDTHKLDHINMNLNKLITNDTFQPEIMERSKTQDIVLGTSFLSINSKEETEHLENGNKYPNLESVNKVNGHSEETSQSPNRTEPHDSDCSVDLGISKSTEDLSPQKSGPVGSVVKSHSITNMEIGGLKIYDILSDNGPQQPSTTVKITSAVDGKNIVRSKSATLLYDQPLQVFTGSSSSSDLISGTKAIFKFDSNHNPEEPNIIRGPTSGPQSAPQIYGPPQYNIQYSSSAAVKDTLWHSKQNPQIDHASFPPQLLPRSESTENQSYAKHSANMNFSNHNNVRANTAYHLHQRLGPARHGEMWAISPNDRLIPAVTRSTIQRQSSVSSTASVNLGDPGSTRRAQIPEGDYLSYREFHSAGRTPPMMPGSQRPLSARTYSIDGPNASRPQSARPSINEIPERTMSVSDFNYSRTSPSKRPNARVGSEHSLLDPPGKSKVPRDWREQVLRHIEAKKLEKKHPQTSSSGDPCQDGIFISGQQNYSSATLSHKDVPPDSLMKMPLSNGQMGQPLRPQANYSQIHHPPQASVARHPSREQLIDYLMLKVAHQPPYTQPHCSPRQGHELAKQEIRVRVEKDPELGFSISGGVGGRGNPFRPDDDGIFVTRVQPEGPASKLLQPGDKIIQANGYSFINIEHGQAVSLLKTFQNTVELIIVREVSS

Assays:
[1] = target: T1, hTMIGD1 full length (AA 1-262) (human) (UniProt Q6UXZ0); assay: co-IP; HEK293 cells stably transfected with TMIGD1 constructs and transiently transfected with Scrib constructs, Erbin or Lano/LRRC1; IP with anti-TMIGD1 antibodies; in one experiment with or without TAK-243; lysis in 25 mM Tris-HCl pH 7.4, 1% NP-40, 150 mM NaCl, 5% glycerol
T1 sequence: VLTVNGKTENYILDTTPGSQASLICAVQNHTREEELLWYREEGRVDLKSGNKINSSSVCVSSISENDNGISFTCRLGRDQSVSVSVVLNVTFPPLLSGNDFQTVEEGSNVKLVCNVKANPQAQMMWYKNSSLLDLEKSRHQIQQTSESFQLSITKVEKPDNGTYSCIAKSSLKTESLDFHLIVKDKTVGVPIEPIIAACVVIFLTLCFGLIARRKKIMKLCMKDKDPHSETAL

[2] = target: T2, GST-TMIGD1 cytoplasmic tail (AA 242-262) (human) (UniProt Q6UXZ0); assay: pull-down; 3 µg GST fusion protein immobilised on glutathione-Sepharose 4B; 10 µl of in vitro translated 35S-methionine-labelled Scrib construct; 2 h at 4 °C in 10 mM Hepes-NaOH pH 7.4, 100 mM KCl, 1 mM MgCl2, 0.1% Triton X-100; autoradiography; only the target purified
T2 sequence: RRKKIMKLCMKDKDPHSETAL

[3] = target: T3, GST-TMIGD1/Δ5, cytoplasmic tail lacking the PDZ domain binding motif (AA 242-257) (human) (UniProt Q6UXZ0); assay: as above
T3 sequence: RRKKIMKLCMKDKDPH

[4] = target: T4, LexA fusion of the cytoplasmic tail of TMIGD1 (AA 241-262) (human) (UniProt Q6UXZ0); assay: two-hybrid; S. cerevisiae L40; LexA-TMIGD1 cytoplasmic tail (AA 241-262) as bait; day 9.5/10.5 mouse embryo cDNA library; selection on SD-THULL with 1 mM 3-aminotriazole, 30 °C
T4 sequence: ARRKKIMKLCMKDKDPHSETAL

[5] = target: T5, hTMIGD1 lacking the PDZ domain binding motif (hTMIGD1/Δ5, AA 1-258) (human) (UniProt Q6UXZ0); assay: co-IP; HEK293 cells stably transfected with TMIGD1 constructs, endogenous Scrib; IP with antibodies against TMIGD1 or against Scrib; lysis in 25 mM Tris-HCl pH 7.4, 1% NP-40, 150 mM NaCl, 5% glycerol; 4 h at 4 °C
T5 sequence: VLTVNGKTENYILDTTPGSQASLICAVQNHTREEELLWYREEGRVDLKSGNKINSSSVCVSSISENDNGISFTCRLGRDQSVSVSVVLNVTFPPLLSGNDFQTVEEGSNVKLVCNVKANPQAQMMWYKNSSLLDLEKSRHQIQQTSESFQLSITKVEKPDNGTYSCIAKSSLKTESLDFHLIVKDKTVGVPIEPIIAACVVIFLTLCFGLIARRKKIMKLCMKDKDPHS

[6] = target: T1, hTMIGD1 full length (AA 1-262) (human); assay: as above
[7] = target: endogenous Scrib of HEK293 cells (human (endogenous in HEK293)) (UniProt Q14160); assay: as above
[8] = target: hScrib/PDZ4 (AA 1099-1203) (human) (UniProt Q14160); assay: ITC; peptide (900-1100 µM) titrated into PDZ domain (75 µM); 25 mM Tris-HCl pH 8.0, 150 mM NaCl, 5 mM TCEP; 25 °C; 20 injections; one-site binding model; both purified
[9] = target: hScrib/PDZ2 (AA 833-965) (human) (UniProt Q14160); assay: as above
[10] = target: T6, hScrib/PDZ1 (AA 728-815) (human, UniProt Q14160 728-815); assay: as above
T6 construct: Scribble, human, PDZ1 domain, AA 728-815; In pGEX-6P-3 or pGIL-MBP; also called PDZ domain 1 of Scrib; source: E. coli BL21 (DE3) CodonPlus or pLysS, purified

[11] = target: T7, hScrib/PDZ3 (AA 1005-1094) (human, UniProt Q14160 1005-1094); assay: as above
T7 construct: Scribble, human, PDZ3 domain, AA 1005-1094; In pGEX-6P-3 or pGIL-MBP; source: E. coli BL21 (DE3) CodonPlus or pLysS, purified
T7 sequence (looked up): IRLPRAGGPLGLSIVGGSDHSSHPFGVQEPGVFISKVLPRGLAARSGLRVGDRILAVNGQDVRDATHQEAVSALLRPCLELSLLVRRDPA

Molecule: hLano/WT (AA 1-524) (from UniProt Q9BTT6 1-524)
- binding [1]: no binding

Molecule: hScrib/LRR (AA 2-727) (from UniProt Q14160 2-727) (domain or fragment)
- binding [1]: no binding

Molecule: hScrib/PDZ-mut4 (AA 616-1490_L1111AG1112E) (from UniProt Q14160 616-1490) (domain or fragment)
- binding [2]: binds

Molecule: hScrib/PDZ-WT (AA 616-1490) (from UniProt Q14160 616-1490) (domain or fragment)
- binding [2]: binds
- binding [3]: no binding

Molecule: murine Scrib, region AA 633-836 (overlapping yeast two-hybrid library clones) (from UniProt Q80U72 633-836) (domain or fragment)
- binding [4]: binds

Molecule: hErbin/WT (AA 1-1412) (from UniProt Q96RT1 1-1412)
- binding [1]: no binding

Molecule: endogenous Scrib of HEK293 cells (from UniProt Q14160 1-1655)
- binding [5]: no binding
- binding [6]: binds weakly

B1: hTMIGD1 full length (AA 1-262) (receptor, UniProt Q6UXZ0 30-262)
chain: T1 sequence
- binding [7]: binds weakly

B2: C-terminally derived 8-mer human TMIGD1 peptide (DPHSETAL) (peptide)
peptide: DPHSETAL
notes: TMIGD1, human, the eight C-terminal residues with the PBM (SETAL), free C-terminal carboxyl; also called TMIGD1/WT; TMIGD1 PBM peptide; source: synthetic peptide (Genscript)
- binding [8]: no binding (tested: domain 75 µM, peptide 900-1100 µM)
- binding [9]: no binding (tested: domain 75 µM, peptide 900-1100 µM)

Molecule: DPHSEAAA [mutant TMIGD1 peptide (DPHSEAAA)]
- binding [8]: no binding (tested: domain 75 µM, peptide 900-1100 µM)
- binding [9]: no binding (tested: domain 75 µM, peptide 900-1100 µM)
- binding [10]: no binding (tested: domain 75 µM, peptide 900-1100 µM)
- binding [11]: no binding (tested: domain 75 µM, peptide 900-1100 µM)

B3: hTMIGD1 lacking the PDZ domain binding motif (hTMIGD1/Δ5, AA 1-258) (receptor, UniProt Q6UXZ0 30-258)
chain: T5 sequence
- binding [7]: no binding
